The supplement of paper PMC8728848
The list shows a part of the results.

Key:
Test in all cases: glycan array binding signal (z-score within array); higher = stronger binding
Settings in all cases: glycan notation: IUPAC condensed, linker removed
[1] = molecular target: Fuc(a1-2)Gal(b1-4)GlcNAc(b1-3)Gal(b1-4)GlcNAc(b1-3)Gal(b1-4)GlcNAc
How it was run: (§1)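 The Consortium for Functional Glycomics database supplied 3228 glycan arrays, of which those lacking an available protein sequence were dropped. The binding signal, a within-array Z-score, was averaged across arrays of the same protein sequence and across linkers. Negative scores can be read as non-binding.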

[2] = molecular target: Fuc(a1-2)Gal(b1-4)GlcNAc(b1-3)GalNAc
How it was run: as §1

[3] = molecular target: Fuc(a1-2)Gal(b1-4)GlcNAc(b1-3)[Fuc(a1-2)Gal(b1-4)GlcNAc(b1-6)]GalNAc
How it was run: as §1

[4] = molecular target: Fuc(a1-2)Gal(b1-4)GlcNAc(b1-3)[Fuc(a1-3)[Gal(b1-4)]GlcNAc(b1-6)]Gal(b1-4)Glc
How it was run: as §1

[5] = molecular target: Fuc(a1-2)Gal(b1-4)GlcNAc(b1-6)GalNAc
How it was run: as §1

[6] = molecular target: Fuc(a1-2)Gal(b1-4)GlcNAc6S
How it was run: as §1

[7] = molecular target: Fuc(a1-2)Gal(b1-4)[Fuc(a1-3)]GlcNAc
How it was run: as §1

[8] = molecular target: Fuc(a1-2)Gal(b1-4)[Fuc(a1-3)]GlcNAc(b1-2)Man(a1-3)[Fuc(a1-2)Gal(b1-4)[Fuc(a1-3)]GlcNAc(b1-2)Man(a1-6)]Man(b1-4)GlcNAc(b1-4)[Fuc(a1-6)]GlcNAc
How it was run: as §1

[9] = molecular target: Fuc(a1-2)Gal(b1-4)[Fuc(a1-3)]GlcNAc(b1-2)[Fuc(a1-2)Gal(b1-4)[Fuc(a1-3)]GlcNAc(b1-4)]Man(a1-3)[Fuc(a1-2)Gal(b1-4)[Fuc(a1-3)]GlcNAc(b1-2)Man(a1-6)]Man(b1-4)GlcNAc(b1-4)GlcNAc
How it was run: as §1

[10] = molecular target: Fuc(a1-2)Gal(b1-4)[Fuc(a1-3)]GlcNAc(b1-3)Gal(b1-4)[Fuc(a1-3)]GlcNAc
How it was run: as §1

[11] = molecular target: Fuc(a1-2)Gal(b1-4)[Fuc(a1-3)]GlcNAc(b1-3)Gal(b1-4)[Fuc(a1-3)]GlcNAc(b1-3)Gal(b1-4)[Fuc(a1-3)]GlcNAc
How it was run: as §1

[12] = molecular target: Fuc(a1-2)Gal(b1-4)[Fuc(a1-3)]GlcNAc(b1-3)GalNAc
How it was run: as §1

[13] = molecular target: Fuc(a1-2)Gal(b1-4)[Fuc(a1-3)]GlcNAc(b1-3)[Neu5Ac(a2-6)Gal(b1-4)GlcNAc(b1-6)]Gal(b1-4)Glc
How it was run: as §1

[14] = molecular target: Fuc(a1-2)Gal3S(b1-4)GlcNAc
How it was run: as §1

[15] = molecular target: Fuc(a1-2)Gal6S(b1-3)GlcNAc
How it was run: as §1

[16] = molecular target: Fuc(a1-2)Gal6S(b1-3)GlcNAc6S
How it was run: as §1

[17] = molecular target: Fuc(a1-2)Gal6S(b1-4)Glc
How it was run: as §1

[18] = molecular target: Fuc(a1-2)Gal6S(b1-4)Glc6S
How it was run: as §1

[19] = molecular target: Fuc(a1-2)[Gal(a1-3)]Gal
How it was run: as §1

[20] = molecular target: Fuc(a1-2)[Gal(a1-3)]Gal(b1-3)GalNAc
How it was run: as §1

[21] = molecular target: Fuc(a1-2)[Gal(a1-3)]Gal(b1-3)GalNAc(b1-3)Gal(a1-4)Gal(b1-4)Glc
How it was run: as §1

[22] = molecular target: Fuc(a1-2)[Gal(a1-3)]Gal(b1-3)GlcNAc
How it was run: as §1

[23] = molecular target: Fuc(a1-2)[Gal(a1-3)]Gal(b1-3)GlcNAc(b1-2)Man(a1-3)[Fuc(a1-2)[Gal(a1-3)]Gal(b1-3)GlcNAc(b1-2)Man(a1-6)]Man(b1-4)GlcNAc(b1-4)GlcNAc
How it was run: as §1

[24] = molecular target: Fuc(a1-2)[Gal(a1-3)]Gal(b1-3)GlcNAc(b1-2)Man(a1-3)[Fuc(a1-2)[Gal(a1-3)]Gal(b1-3)GlcNAc(b1-2)Man(a1-6)]Man(b1-4)GlcNAc(b1-4)[Fuc(a1-6)]GlcNAc
How it was run: as §1

[25] = molecular target: Fuc(a1-2)[Gal(a1-3)]Gal(b1-3)GlcNAc(b1-3)GalNAc
How it was run: as §1

[26] = molecular target: Fuc(a1-2)[Gal(a1-3)]Gal(b1-3)GlcNAc(b1-6)GalNAc
How it was run: as §1

[27] = molecular target: Fuc(a1-2)[Gal(a1-3)]Gal(b1-4)Glc
How it was run: as §1

[28] = molecular target: Fuc(a1-2)[Gal(a1-3)]Gal(b1-4)GlcNAc
How it was run: as §1

[29] = molecular target: Fuc(a1-2)[Gal(a1-3)]Gal(b1-4)GlcNAc(b1-2)Man
How it was run: as §1

[30] = molecular target: Fuc(a1-2)[Gal(a1-3)]Gal(b1-4)GlcNAc(b1-2)Man(a1-3)[Fuc(a1-2)[Gal(a1-3)]Gal(b1-4)GlcNAc(b1-2)Man(a1-6)]Man(b1-4)GlcNAc(b1-4)GlcNAc
How it was run: as §1

B1: LecB PA14 (Pseudomonas aeruginosa) (protein)
chain: MATQGVFTLPANTQFGVTAFANSAGTQTVNVQVNNETVATFTGQSTNNAIIGSKVLNSGGGGKVQILVSVNGRSSDLVSAQVILANELNFALVGSEDSTDNDYNDAVVVINWPLG
For B1, the “glycan array binding signal (z-score)” value [1] was 0.727, the “glycan array binding signal (z-score)” value [2] was -0.189 and the “glycan array binding signal (z-score)” value [3] was -0.645. The “glycan array binding signal (z-score)” value [4] was 0.049, the “glycan array binding signal (z-score)” value [5] was 2.52 and the “glycan array binding signal (z-score)” value [6] was -0.469. For the same binder, the “glycan array binding signal (z-score)” value [7] was 0.404, the “glycan array binding signal (z-score)” value [8] was -0.289 and the “glycan array binding signal (z-score)” value [9] was -0.392. The “glycan array binding signal (z-score)” value [10] was 10.2, the “glycan array binding signal (z-score)” value [11] was 7.29 and the “glycan array binding signal (z-score)” value [12] was -0.206. The “glycan array binding signal (z-score)” value [13] was -0.255, the “glycan array binding signal (z-score)” value [14] was -0.574 and the “glycan array binding signal (z-score)” value [15] was 0.146. The “glycan array binding signal (z-score)” value [16] was 1.31, the “glycan array binding signal (z-score)” value [17] was 1.07 and the “glycan array binding signal (z-score)” value [18] was -0.548. For the same binder, the “glycan array binding signal (z-score)” value [19] was -0.002, the “glycan array binding signal (z-score)” value [20] was -0.726 and the “glycan array binding signal (z-score)” value [21] was -0.475. The “glycan array binding signal (z-score)” value [22] was -0.06, the “glycan array binding signal (z-score)” value [23] was -0.734 and the “glycan array binding signal (z-score)” value [24] was 0.714. The “glycan array binding signal (z-score)” value [25] was -0.161, the “glycan array binding signal (z-score)” value [26] was -0.543 and the “glycan array binding signal (z-score)” value [27] was -0.202. For the same binder, the “glycan array binding signal (z-score)” value [28] was -0.7, the “glycan array binding signal (z-score)” value [29] was -0.152 and the “glycan array binding signal (z-score)” value [30] was -0.678.
